Out of some 100,000 compounds screened, about 250 (0.25%) were called active. Inconclusive means that the source gave no clear call. Such entries were picked first, then a sample of the others. Calls come from the whole dose curve; as a rule, active = well fitted inhibition curve with a large enough effect; inconclusive = small, poorly fitted or top-dose-only effect; inactive = flat fitted curve, though single readings scatter. No potency is given beside an inconclusive call; the fits are too rough.
Each molecule was assayed against Alanine aminotransferase 2 (Homo sapiens) (UniProt Q8TD30) (assay: Primary qHTS assay for inhibitors of Glutamate pyruvate transaminase 2 (GPT2)). Conditions: Recombinant GPT2, coupled pyruvate oxidase/HRP Amplex Red fluorescence; activity change, negative = inhibition: at 57.7 µM (top of the series) unless noted; series mostly up to 57.7 µM.
UniProt Q8TD30, sequence (Q8TD30 whole entry, looked up): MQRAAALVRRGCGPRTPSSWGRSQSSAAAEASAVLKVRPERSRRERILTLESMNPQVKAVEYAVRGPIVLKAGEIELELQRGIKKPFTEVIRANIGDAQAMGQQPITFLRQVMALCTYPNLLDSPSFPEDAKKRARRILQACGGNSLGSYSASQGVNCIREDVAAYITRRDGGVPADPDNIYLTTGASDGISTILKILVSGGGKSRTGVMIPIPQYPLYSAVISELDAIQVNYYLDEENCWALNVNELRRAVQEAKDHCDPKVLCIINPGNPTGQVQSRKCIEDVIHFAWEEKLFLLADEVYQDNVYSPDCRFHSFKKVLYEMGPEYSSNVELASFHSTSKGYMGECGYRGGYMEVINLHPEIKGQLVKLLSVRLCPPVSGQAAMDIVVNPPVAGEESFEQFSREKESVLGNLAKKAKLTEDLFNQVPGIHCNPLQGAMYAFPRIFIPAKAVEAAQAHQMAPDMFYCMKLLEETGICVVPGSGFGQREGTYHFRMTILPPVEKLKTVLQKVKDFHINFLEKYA
Summary of the method: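 Inhibition is scored from Amplex Red fluorescence generated when pyruvate oxidase and HRP act on pyruvate released by GPT2. Reactions contain 10ng/uL enzyme, 250uM a-KG and 2mM L-alanine and run 30 min at room temperature.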
% is set by controls: 0 for no effect and ±100 for the full control effect; potency is the fitted concentration of half-maximal effect; tags give direction and shape of the fitted curve.
Note: nearly all actives have a fitted effect of over 60% in size.

Row | Compound | Potency | activity change, negative = inhibition | outcome
1 | Cc1ccc(CN2CCC[C@H]2C(=O)N2CCCCCCNC(=O)CC2)o1 | inconclusive [inhibitor, partial curve, poor fit] | – | –
2 | CC1(c2ccccc2)OC(C(=O)O)=CC1=O (stereo unspecified) | inconclusive [inhibitor, single point] | – | –
3 | CC1=NS(=O)(=O)N(C)C=C1C(=O)OCc1nc(-c2ccc(Br)cc2)no1 | inconclusive [inhibitor, partial curve, poor fit] | – | –
4 | O=C(CC1CCCCC1)N1CCC2(CC1)NC(=O)N(c1ccc(F)cc1)N2 | inconclusive [inhibitor, single point] | – | –
5 | C#CCNC(=O)c1nc(-c2cccc(C(F)(F)F)c2)c2ccccn12 | inconclusive [inhibitor, single point] | – | –
6 | CC[C@H](C)C(=O)O[C@H]1C[C@@H](C)C=C2C=C[C@H](C)[C@H](CC[C@@H]3C[C@@H](O)CC(=O)O3)[C@H]21 | inconclusive [inhibitor, single point] | – | –
7 | CC1=C[C@@H](CNC(=O)NC2CCCCC2)[C@H](C(C)C)C[C@H]1Cc1nc2ccc(C)cc2[nH]1 | inconclusive [inhibitor, single point] | – | –
8 | O=C(CCc1nc2ccccc2s1)N1CCC(c2nc(C3CCOCC3)no2)CC1 | – | inactive: 4.76% | –
9 | O=C(Cc1ccc(Cl)cc1)N1CC2CC(C1)[C@H]1CCCC(=O)N1C2 (stereo partly specified) | inconclusive [inhibitor, full curve, poor fit] | – | –
10 | COc1cc(OC)cc(C(=O)N2CCC[C@H]2c2nc(-c3ccc(C)cc3)no2)c1 | inconclusive [inhibitor, partial curve] | – | –
11 | CCn1cc(C(=O)N2CCC3(CC2)CN(C2CCC2)CC3CO)cn1 (stereo unspecified) | inconclusive [inhibitor, partial curve, poor fit] | – | –
12 | CCOc1ccccc1CN(C)C(=O)CN1CC(c2ccccc2)CC1=O (stereo unspecified) | inconclusive [inhibitor, full curve, poor fit] | – | –
13 | C[C@H](O)[C@H](O)/C=C/c1cccc(O)c1CO | – | – | inactive
14 | CC(C)CN1CCN(C(=O)C2CCCN(S(=O)(=O)c3ccccc3)CCC(=O)NCC2)CC1 (stereo unspecified) | inconclusive [inhibitor, single point] | – | –
15 | COc1c2c(nc3occc13)C(CC=C(C)C)(OC)C(O)CC2 (stereo unspecified) | inconclusive [inhibitor, partial curve, poor fit] | – | –
16 | Cc1noc2c(-c3cccnc3NCc3cccnc3)cc(-c3ccccc3)nc12 | inconclusive [inhibitor, single point] | – | –
17 | O=C(NC1CCN(c2cc(-c3ccc(Cl)cc3)[nH]n2)C1)c1ccc2c(c1)OCO2 (stereo unspecified) | inconclusive [inhibitor, partial curve, poor fit] | – | –
18 | Cc1ccc(C(=O)N2CCc3onc(-c4cccc5ccccc45)c3C2)cc1 | – | inactive: -8.31% | –
19 | CCC(=O)N1Cc2ccccc2CC2(CCN(CC3CCOCC3)C2)C1 (stereo unspecified) | inconclusive [inhibitor, single point] | – | –
20 | Cc1cc(N=Nc2ccc(S(=O)(=O)Nc3ccccn3)cc2)c(N)cc1O | inconclusive [inhibitor, partial curve, poor fit] | – | –
21 | O=C(Nc1cccc(F)c1)N1CCc2c(c3ccccc3n2CC2CC2)C1 | inconclusive [inhibitor, partial curve, poor fit] | – | –

Row | Compound | Potency | activity change, negative = inhibition | outcome
22 | Cc1n[nH]c(C)c1C(N)C(=O)NCc1cc(C(F)(F)F)ccc1F (stereo unspecified) | inconclusive [inhibitor, single point] | – | –
23 | COC[C@@H]1CN(S(=O)(=O)C(C)C)C[C@H]1c1ccncc1 | – | inactive: -1.53% | –
24 | CN1C(=O)C(CC(=O)N2CCCNCC2)(Cc2ccccc2)c2ccccc21 (stereo unspecified) | inconclusive [inhibitor, partial curve, poor fit] | – | –
25 | Cn1nccc1C(=O)NC1CCCN(c2cc(-c3ccc(F)cc3)[nH]n2)C1 (stereo unspecified) | inconclusive [inhibitor, single point] | – | –
26 | CCOC(=O)C1(Cc2ccc(OC)cc2)CCNCC1 | inconclusive [inhibitor, full curve, poor fit] | – | –
27 | Cc1ccc2nc([C@H]3CCN(Cc4ccccn4)C3)[nH]c2c1 | inconclusive [inhibitor, partial curve, poor fit] | – | –
28 | COc1ccc(/C=C/C(=O)O[C@H]2[C@@H]3C=CO[C@@H](O[C@@H]4O[C@H](CO)[C@@H](O)[C@H](O)[C@H]4O)[C@@H]3[C@@]3(CO)O[C@@H]23)cc1O | inconclusive [inhibitor, single point] | – | –
29 | COc1ccc(-c2noc([C@@H]3CCCN3C(=O)c3ccccc3Cl)n2)cc1OC | – | – | inactive
30 | O=[S+]([O-])(c1ccccc1)N1CC2(COCCN(Cc3ccncc3)C2)C1 | inconclusive [inhibitor, full curve, poor fit] | – | –
31 | CSc1ccc(-c2ccc3c(c2)C(=O)N2CC[C@H](NC(=O)C4CCNCC4)C[C@H]2C(=O)N3)cc1 | – | – | inactive
32 | CCCC(=O)NC1CCN(c2ccnc3ccnn23)C1 (stereo unspecified) | – | inactive: -16.2% [at 88.5 µM] | –
33 | COc1ccccc1N1CCN(C(=O)C[C@@H]2CCNC[C@@H]2Cc2cc(-c3ccc(F)cc3)on2)CC1 | – | inactive: -5.12% | –
34 | C=C(C(=O)O)[C@H]1C[C@]2(C)[C@@H](O)CC[C@]23O[C@H]1C[C@@H]3C | – | inactive: 3.11% | –
35 | COc1cccc(SCC(=O)NCc2cc3n(n2)CCNC3)c1 | inconclusive [inhibitor, single point] | – | –
36 | O=C(NCc1ccc(Cl)cc1)c1ccc2nnc(-c3cc(C(F)(F)F)cc(C(F)(F)F)c3)n2c1 | – | – | inactive
37 | Cn1nc2n(c1=O)CCN(S(=O)(=O)c1ccc3[nH]c(=O)oc3c1)CC2 | – | inactive: -5.48% | –
38 | CCn1ncc(N2CCC(NC(=O)Cc3ccc(F)cc3)CC2)cc1=O | – | – | inactive
39 | O=C1Nc2ccc(O)cc2O[C@H]1O[C@@H]1O[C@H](CO)[C@@H](O)[C@H](O)[C@H]1O | inconclusive [inhibitor, single point] | – | –
40 | Cc1ccc(-c2cc(-c3cccnc3)nc3c(C)noc23)c(C)c1 | inconclusive [inhibitor, partial curve, poor fit] | – | –
41 | COc1ccc(-c2ccc3c(c2)C(=O)N2CCN(C(=O)c4ccccc4)C[C@@H]2C(=O)N3)cc1 | inconclusive [inhibitor, single point] | – | –
42 | Cc1cnc(Nc2ccc(F)cc2Cl)nc1-c1c[nH]c(C(=O)NC(CO)c2cccc(Cl)c2)c1 (stereo unspecified) | active: 7.08 µM | – | –

Row | Compound | Potency | activity change, negative = inhibition | outcome
43 | O=C(c1cccc(Cl)c1)N1CCC2(C1)C(=O)N(CCc1ccccc1)c1ccccc12 (stereo unspecified) | inconclusive [inhibitor, single point] | – | –
44 | C[C@H]1[C@@H]2[C@@H](O)C([C@H](C)C(=O)N(C)Cc3ccccc3)CC[C@@]2(C)CC[C@@H]1NC(=O)c1ccncc1 (stereo partly specified) | inconclusive [inhibitor, full curve, poor fit] | – | –
45 | Cn1ccc(C(=O)N2CC3ON=C(C(=O)N4CCN(c5ncccn5)CC4)C3C2)n1 (stereo unspecified) | inconclusive [inhibitor, single point] | – | –
46 | COC(=O)c1cn([C@H]2CO[C@H]3[C@@H]2OC[C@@H]3NC(=O)Nc2ccc(OC)cc2)nn1 | inconclusive [inhibitor, single point] | – | –
47 | CCN1C(=O)CCN(C(=O)c2c(C)noc2C)CC12CCOCC2 | inconclusive [inhibitor, partial curve, poor fit] | – | –
48 | C[C@@H]1C(=O)O[C@H]2[C@H]1CC[C@@]1(C)Cc3sc(NCc4ccccc4)nc3[C@@H](C)[C@H]21 | – | inactive: -29.8% [at 88.5 µM] | –
49 | CC(=O)Nc1cccc(-c2nc(-c3c(C)noc3C)cc3cc(C)oc23)c1 | inconclusive [inhibitor, single point] | – | –
50 | Cc1cn2nc(-c3nc(C4CCCN(C(=O)c5ccccc5)C4)no3)cc2c(=O)[nH]1 (stereo unspecified) | – | inactive: 4.87% | –
51 | O=C(NC(c1ccccc1)c1ccccc1)c1cnc2c(c1)N(C(=O)Cc1ccc(O)cc1)CCC2 | inconclusive [inhibitor, single point] | – | –
52 | Clc1ccc(CN2CC[C@H](c3nc4cc(Cl)ccc4o3)C2)cc1 | – | inactive: 4.21% [at 88.5 µM] | –
53 | Cn1ccc(C(=O)N2CC(CNc3ccccc3)C3(C2)CN(c2ccccc2)C3)n1 (stereo unspecified) | inconclusive [inhibitor, partial curve, poor fit] | – | –
54 | CS(=O)(=O)c1ccc(CNC[C@H]2Cn3ccnc3CO2)cc1 | inconclusive [inhibitor, partial curve, poor fit] | – | –
55 | CC#CCn1cc2c3c(cccc31)[C@H](CC(C)C)N[C@H](C(=O)NCCN(C)C)C2 | – | inactive: -27.6% [at 88.5 µM] | –
56 | O=C1CCC2(CCN(C(=O)c3ccco3)CC2)CN1CC1CCCO1 (stereo unspecified) | inconclusive [inhibitor, full curve, poor fit] | – | –
57 | COCCNc1ncnc2c1CN(c1ccccc1C)C(=O)CN2C | inconclusive [inhibitor, single point] | – | –
58 | CC(=O)N1CCO[C@@H](COc2ccccn2)[C@@H]1c1ccccc1 | – | – | inactive
59 | O=C(CC12CC3CC(CC(C3)C1)C2)Nc1cccc2nc(NCCNCCO)ccc12 | inconclusive [inhibitor, single point] | – | –
60 | Cc1cccc(-c2nc3cnccn3c2NCCC(=O)NCc2ccc3c(c2)OCO3)c1 | inconclusive [inhibitor, single point] | – | –
61 | CN(C)c1cc(N2CCCC(NC(=O)COc3ccccc3)C2)ncn1 (stereo unspecified) | inconclusive [inhibitor, single point] | – | –
